From PubChem BioAssay AID651820 (National Center for Advancing Translational Sciences (NCATS), 2012)
Where “and” joins values, the source holds several entries; their conditions need not be identical. Equal entries are not always repeated. The campaign covered roughly 340,000 compounds. About 12,000 (3.5%) were called active. This list was built around the results that the source calls inconclusive (neither active nor inactive); the mix of calls is not that of the screen. The call rests on the fitted dose curve; in most records, active means well fitted inhibition curve with a large enough effect; inconclusive means small, poorly fitted or top-dose-only effect, or another doubt; inactive means no such curve, though single readings can be large or run the other way. A potency beside an inconclusive call is a rough fit, not a confirmed value.

Test: qHTS Assay for Inhibitors of Hepatitis C Virus (HCV)
Details: Huh7.5.1 HCVcc-Cre (HCVcc is cell-culture hepatitis C virus) infection, luciferase reporter, 44 h; activity change, negative = inhibition: at 41.8 µM (top of the series) unless noted
In short: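 A cell-based infection assay in which seeded cells (1,000 per well) receive test compound after 4 h, are inoculated with HCVcc-Cre at approximately 0.5 moi, and are incubated 44 h before luminescence detection.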
On the % scale 0 is the no-effect control and ±100 the full control effect; potency means the concentration at half of the fitted maximal effect; tags describe the fitted curve by direction and shape.

Q: With CCCc1cc(C(=O)NNC(=S)Nc2cccc(C)c2)cs1 as the compound, how does the “activity change, negative = inhibition” value read?
A: The value was inactive: -3.39%.

Q: Which Potency does the source give for COc1cccc(N2CCN(C(=O)CN3C(=O)NC(C)(c4ccc5ccccc5c4)C3=O)CC2)c1 (centres undefined) here?
A: The Potency was active: 11.2 µM.

Q: Which Potency does the source give for OCCN1CCN(CC#CCn2c3ccccc3c3ccccc32)CC1 here?
A: The Potency was inconclusive: 22.4 µM [inhibitor, single point].

Q: With Cc1cc(Cl)ccc1OC(C)C(=O)Nc1ccc([N+](=O)[O-])cn1 (centres undefined) as the compound, how does the Potency read?
A: The Potency was inconclusive: 12.6 µM [inhibitor, single point].

Q: For O=c1cc(-c2ccccc2)nc2nc(COc3ccccc3)[nH]n12, which Potency is on record?
A: The Potency was inconclusive: 2.24 µM [inhibitor, single point].

Q: With CCN(CC)C(=O)Cn1cc(C(=O)C(=O)NCCc2c[nH]c3ccccc23)c2ccccc21 as the compound, how does the Potency read?
A: The Potency was inconclusive: 11.2 µM [inhibitor, partial curve].

Q: For Brc1ccc2[nH]c3c(N4CCc5ccccc5C4)ncnc3c2c1, which Potency is on record?
A: The Potency was active: 3.55 µM.

Q: For Cc1nc(/N=C(\N)NC(=O)N2c3ccccc3Sc3ccccc32)nc2ccccc12, which Potency is on record?
A: The Potency was inconclusive: 7.94 µM [inhibitor, partial curve].

Q: With COc1cc(OC)cc(-c2sc3ccc(OC)cc3c2C#CCO)c1 as the compound, how does the Potency read?
A: The Potency was inconclusive: 12.6 µM [inhibitor, partial curve].

Q: Which Potency does the source give for CCN1C(=NCCc2ccc(Br)cc2)N[C@@H](c2ccccc2)[C@H](C(=O)OC)[C@H]1C here?
A: The Potency was inconclusive: 2.82 µM [inhibitor, single point].

Q: For N#C/C(=C\Nc1ccc2c(c1)OCCO2)c1nc(-c2ccccc2)cs1, which Potency is on record?
A: The Potency was inconclusive: 35.5 µM [inhibitor, single point].

Q: Which Potency does the source give for CC(C(=O)Nc1ccccc1Sc1ccccc1)N(c1ccccc1)S(C)(=O)=O (centres undefined) here?
A: Its Potency is inconclusive: 20 µM [inhibitor, single point].

Q: For COCCCNc1ncnc2c1cnn2-c1ccc(C)cc1C, which “activity change, negative = inhibition” value is on record?
A: The value was inactive: -13.6%.

Q: Which Potency does the source give for COc1ccc(CNC(=S)Nc2cccc(C)c2C)cc1 here?
A: The Potency was inconclusive: 7.08 µM [inhibitor, partial curve].

Q: Which Potency does the source give for COc1cccc(-n2c(C)nc3c(cnn3-c3ccc(C)cc3)c2=O)c1 here?
A: Its Potency is inconclusive: 31.6 µM [inhibitor, single point].

Q: With CC(C)C(=O)Nc1ccc(NC(=O)c2ccc([N+](=O)[O-])cc2Cl)cc1 as the compound, how does the Potency read?
A: Its Potency is inconclusive: 12.6 µM [inhibitor, partial curve].

Q: Which Potency does the source give for O=C(N/N=C/C(Br)=C/c1ccccc1)c1cc(-c2ccco2)[nH]n1 here?
A: The Potency was inconclusive: 8.91 µM [inhibitor, partial curve].

Q: For O=Cc1cccn1-c1c(C(=O)O)cnn1-c1ccccc1, which “activity change, negative = inhibition” value is on record?
A: The value was inactive: -1.75%.

Q: Which Potency does the source give for CCN(CC)CCNC(=O)c1cc2cc(Br)ccc2s1 here?
A: The Potency was active: 12.6 µM.

Q: For Cc1cc[n+](Cc2ccccc2)cc1, which Potency is on record?
A: The Potency was inconclusive: 31.6 µM [inhibitor, single point].

Q: For COc1ccc(Cn2c(=O)[nH]c3cc(C(=O)N4CCN(c5ccc(OC)cc5)CC4)ccc3c2=O)cc1, which Potency is on record?
A: The Potency was inconclusive: 10 µM [inhibitor, single point].

Q: With CCOC(=O)c1[nH]c2ccccc2c1NC(=O)c1ccc(Br)o1 as the compound, how does the Potency read?
A: Its Potency is inconclusive: 10 µM [inhibitor, partial curve].

Q: Which “activity change, negative = inhibition” value does the source give for CC(=O)NCCC(=O)Nc1cc(S(=O)(=O)N2CCCCC2)ccc1N1CCCCC1 here?
A: Its value is inactive: -0.711%.

Q: For COc1ccccc1C(=O)Nc1nnc(S(=O)(=O)N(C)Cc2ccccc2)s1, which Potency is on record?
A: Its Potency is inconclusive: 28.2 µM [inhibitor, single point].

Q: Which Potency does the source give for CC(C)c1ccc(NC(=O)C(c2ccc3c(c2)OCO3)N2CCN(C(=O)c3ccco3)CC2)cc1 (centres undefined) here?
A: Its Potency is “inactive and inconclusive: 7.94 µM [inhibitor, partial curve]”.

Q: Which “activity change, negative = inhibition” value does the source give for O=C(CCn1nc(-c2ccccc2)ccc1=O)N1CCOCC1 here?
A: The value was inactive: 15.9%.

Q: For CCOC(=O)c1nn(-c2ccc(C)c(C)c2)c(=O)c(C#N)c1C, which Potency is on record?
A: The Potency was inconclusive: 31.6 µM [inhibitor, single point].

Q: With CCOc1ccc(CCNC(=O)CCc2nc(-c3ccc(C)cc3)no2)cc1OCC as the compound, how does the Potency read?
A: The Potency was inconclusive: 3.98 µM [inhibitor, partial curve].

Q: Which Potency does the source give for OC1CCN(c2c3c(nc4cc(-c5ccc(F)cc5)nn24)CCC3)CC1 here?
A: The Potency was inconclusive: 4.47 µM [inhibitor, partial curve].

Q: With CCc1ccc(S(=O)(=O)NCCc2csc(-c3ccccc3)n2)s1 as the compound, how does the Potency read?
A: The Potency was inconclusive: 10 µM [inhibitor, partial curve].

Q: For COc1ccc(OC)c(C(=O)Cn2nnc(-c3ccc(N4CCOCC4)cc3)n2)c1, which Potency is on record?
A: Its Potency is inconclusive: 14.1 µM [inhibitor, single point].

Q: Which “activity change, negative = inhibition” value does the source give for CN1CCN(C(=O)c2ccc(CN3CCOCC3)cc2)CC1 here?
A: Its value is inactive: 1.14%.

Q: Which Potency does the source give for OCC1(Cc2cccc(Cl)c2)CCCN(Cc2sc(N3CCCC3)nc2Cl)C1 (centres undefined) here?
A: The Potency was inconclusive: 22.4 µM [inhibitor, single point].

Q: For COc1cccc(CN(C)C(=O)c2cc(COc3ccc(-n4cncn4)cc3)on2)c1, which Potency is on record?
A: The Potency was inconclusive: 22.4 µM [inhibitor, single point].

Q: For CC[C@]1(C(=O)OC)[C@H]2C(=O)N(Cc3ccccc3)C(=O)[C@H]2[C@H]2CN=C(SCc3ccc(C#N)cc3)N21, which activity change, negative = inhibition is on record?
A: The activity change, negative = inhibition was inactive: -29.6% [at 8.37 µM].

Q: For COc1ccc(NC(=O)NC[C@@H]2CC[C@@H](Cc3ccc(-c4ccccc4)cc3)O2)cc1, which Potency is on record?
A: Its Potency is active: 4.47 µM.

Q: Which Potency does the source give for COc1ccc(NC(=O)c2ccc(NC3CC(=O)N(c4ccc(C)cc4C)C3=O)cc2)cc1 (centres undefined) here?
A: Its Potency is inconclusive: 2.24 µM [inhibitor, full curve].

Q: With CCn1cc(CN2CCCC(C(=O)c3ccc(-c4ccccc4)c(F)c3)C2)cn1 (centres undefined) as the compound, how does the Potency read?
A: Its Potency is inconclusive: 31.6 µM [inhibitor, single point].

Q: With COc1ccc(N2CCN(C(=O)c3cccc(S(=O)(=O)N4CCCc5ccccc54)c3)CC2)cc1 as the compound, how does the Potency read?
A: Its Potency is inconclusive: 31.6 µM [inhibitor, single point].

Q: For COc1ccc(/C=C/C(=O)NCc2cn(C)nc2C)cc1COc1ccc(Cl)cc1Br, which Potency is on record?
A: Its Potency is inconclusive: 0.562 µM [inhibitor, partial curve, poor fit].

Q: Which Potency does the source give for C[C@H](CO)N1C[C@H](C)[C@@H](CN(C)Cc2ccc(-c3ccccc3)cc2)Oc2c(NC(=O)Nc3ccc4c(c3)OCO4)cccc2C1=O here?
A: The Potency was inconclusive: 2.51 µM [inhibitor, full curve].

Q: With O=P(c1ccccc1)(c1ccccc1)N1CCCCC1 as the compound, how does the Potency read?
A: The Potency was inconclusive: 5.62 µM [inhibitor, single point].

Q: Which Potency does the source give for COC(=O)c1cc(=O)n(Cc2cccs2)c(=Nc2ccc(F)cc2)s1 here?
A: Its Potency is inconclusive: 22.4 µM [inhibitor, single point].

Q: Which Potency does the source give for CCNC(=O)CON=C1c2ccccc2-c2ccccc21 here?
A: The Potency was inconclusive: 14.1 µM [inhibitor, partial curve].

Q: With CSC1=N/C(=C\C=C\c2cccs2)C(=O)S1 as the compound, how does the Potency read?
A: Its Potency is inconclusive: 10 µM [inhibitor, partial curve].

Q: With O=[N+]([O-])c1nn(-c2ccc3c(c2)OCCO3)n(O)c1=NCc1ccc(F)cc1 as the compound, how does the Potency read?
A: The Potency was inconclusive: 3.98 µM [inhibitor, partial curve].

Q: Which “activity change, negative = inhibition” value does the source give for CC1(C)CC(=O)c2c(O)c(-c3ccccc3)c(=O)n(-c3ccccc3)c2C1 here?
A: Its value is inactive: 0.745%.

Q: With N=c1c(C(=O)NC2CCCC2)cc2c(=O)n3ccccc3nc2n1C1CCCC1 as the compound, how does the Potency read?
A: Its Potency is inconclusive: 12.6 µM [inhibitor, partial curve].

Q: For Fc1ccccc1-n1cn[nH]c1=S, which “activity change, negative = inhibition” value is on record?
A: The value was inactive: 6.1%.

Q: With O=C1/C(=C/c2cccnc2)Oc2cc(OS(=O)(=O)c3ccc(F)cc3)ccc21 as the compound, how does the Potency read?
A: Its Potency is active: 4.47 µM.

Q: For CCCC(O)(c1ccc(OC)cc1)C(CN1CCOCC1)c1ccc(Cl)cc1 (centres undefined), which “activity change, negative = inhibition” value is on record?
A: Its value is inactive: -10.4%.

Q: Which “activity change, negative = inhibition” value does the source give for O=C(Nc1ccncc1)c1ccccc1Cl here?
A: Its value is inactive: -0.434%.

Q: For O=C1C(Cl)=C(N2CCN(c3ccccc3[N+](=O)[O-])CC2)C(=O)c2ccccc21, which Potency is on record?
A: Its Potency is inconclusive: 0.501 µM [inhibitor, full curve, poor fit].

Q: With CC(=O)C1C(c2ccc(C)cc2)c2c(n[nH]c2C)CC1(C)O (centres undefined) as the compound, how does the “activity change, negative = inhibition” value read?
A: The value was inactive: 9.24%.

Q: With Cc1sc2ncnc(N3CCC(C(=O)Nc4nc(-c5cccs5)cs4)CC3)c2c1C as the compound, how does the Potency read?
A: Its Potency is inconclusive: 11.2 µM [inhibitor, single point].

Q: For Cc1cc(NC(=O)CSc2nc(-c3ccc(Cl)cc3)cs2)no1, which Potency is on record?
A: The Potency was inconclusive: 11.2 µM [inhibitor, partial curve].

Q: For Cc1cnc(NC(=O)CSc2c(Cl)cccc2Cl)s1, which “activity change, negative = inhibition” value is on record?
A: Its value is inactive: 6.41%.

Q: Which Potency does the source give for CSc1ccc(CN2CCC(CO)(CCOc3ccccc3)CC2)cc1 here?
A: The Potency was inconclusive: 31.6 µM [inhibitor, single point].

Q: For Cc1cccc(CS(=O)(=O)c2ncc(Cl)c(C(=O)NCc3ccc4c(c3)OCO4)n2)c1, which “activity change, negative = inhibition” value is on record?
A: The value was inactive: 1.19%.

Q: Which Potency does the source give for CCN(CC)CC(O)CNc1ccnc2c(Cl)ccc(Cl)c12 (centres undefined) here?
A: Its Potency is inconclusive: 12.6 µM [inhibitor, partial curve].

Q: With CCCOC(=O)c1ccc(NC(=O)c2ccoc2C)cc1 as the compound, how does the Potency read?
A: The Potency was inconclusive: 10 µM [inhibitor, partial curve].

Q: Which “activity change, negative = inhibition” value does the source give for CC1CCCN(S(=O)(=O)c2ccc(NC(=O)CNC3CCCC3)cc2)C1 (centres undefined) here?
A: The value was inactive: -10.9%.

Q: Which Potency does the source give for COC(=O)C1=C(c2ccc(-c3ccccc3)c(F)c2)C[C@@H]2CC[C@H]1N2C(=O)N1CCC(O)CC1 here?
A: Its Potency is inconclusive: 6.31 µM [inhibitor, partial curve].

Q: Which “activity change, negative = inhibition” value does the source give for COc1ccccc1C(=O)Nc1nc2ccccc2[nH]1 here?
A: Its value is inactive: -3.77%.

Q: With O=c1oc2c(CN3CCOCC3)c(O)c(Cl)cc2c2c1CCCC2 as the compound, how does the “activity change, negative = inhibition” value read?
A: The value was inactive: 25.9%.

Q: For COc1cccc(NC(=O)c2cc(-c3cccnc3)nc3c(Cl)cccc23)c1, which “activity change, negative = inhibition” value is on record?
A: The value was inactive: -24%.

Q: Which “activity change, negative = inhibition” value does the source give for COc1ccc2nc(NC(=O)CSc3nnc(C)s3)sc2c1 here?
A: Its value is inactive: -11%.

Q: Which “activity change, negative = inhibition” value does the source give for Cc1cc(NC(=O)c2cccc(S(=O)(=O)Nc3cccc(C(=O)O)c3)c2)no1 here?
A: The value was inactive: 27.1%.

Q: For COc1cccc2sc3cc(NCC[C@@H]4CCCN4C)ccc3c(=O)c12, which Potency is on record?
A: The Potency was inconclusive: 12.6 µM [inhibitor, partial curve, poor fit].
